Assays:
[1] = target: KRas WT (Homo sapiens, UniProt P01116); assay: KRas binding assay (TR-FRET displacement), KRas WT; conditions: TR-FRET displacement
[2] = target: KRas G12A (Homo sapiens, UniProt P01116, G12A); type: binding; conditions: TR-FRET displacement, read-out: Binding to KRas (IC50 nM) G12A
[3] = target: KRas G12C (Homo sapiens, UniProt P01116, G12C); type: binding; conditions: TR-FRET displacement, read-out: Binding to KRas (IC50 nM) G12C
[4] = target: KRas G12S (Homo sapiens, UniProt P01116, G12S); type: binding; conditions: TR-FRET displacement, read-out: Binding to KRas (IC50 nM) G12S
[5] = target: KRas G13D (Homo sapiens, UniProt P01116, G13D); type: binding; conditions: TR-FRET displacement, read-out: Binding to KRas (IC50 nM) G13D
[6] = target: KRas Q61H (Homo sapiens, UniProt P01116, Q61H); assay: KRas binding assay (TR-FRET displacement), KRas Q61H; conditions: TR-FRET displacement
[7] = test system: ASPC1 cells; assay: Inhibition of KRas-mediated phosphorylation of ERK (Cisbio HTRF pERK), ASPC1 cells; type: cell-based; conditions: Homo sapiens, AsPC-1 cells; for IC50: ASPC1, 3 h, 3 hr compound incubation
[8] = test system: H727 cells; assay: Inhibition of KRas-mediated phosphorylation of ERK (Cisbio HTRF pERK), H727 cells; type: cell-based; conditions: Homo sapiens; for IC50: NCI-H727, 3 h, 3 hr compound incubation
[9] = test system: H460 cells; assay: Inhibition of KRas-mediated phosphorylation of ERK (Cisbio HTRF pERK), H460 cells; type: cell-based; conditions: Homo sapiens, NCI-H460, single point at 100 nM, 3 hrs compound incubation
[10] = test system: HCT116 cells; assay: Inhibition of KRas-mediated phosphorylation of ERK (Cisbio HTRF pERK), HCT116 cells; type: cell-based; conditions: Homo sapiens, HCT-116, single point at 100 nM, 3 hrs compound incubation

Structure (SMILES) | IC50 [1] | IC50 [2] | IC50 [3] | IC50 [4] | IC50 [5] | IC50 [6] | IC50 [7] | IC50 [8] | other results
Cc1cc2[nH]nnc2c(N2CCc3c(nc(OCC45CCCN4CCC5)nc3N3CCCC4(CNS(=O)(=O)N4)C3)C2)c1C (centres unmarked) [Example 639, 7-(7-(5,6-dimethyl-1H-benzo[d][1,2,3]triazol-4-yl)-2-((tetrahydro-1H-pyrrolizin-7a(5H)-yl)methoxy)-5,6,7,8-tetrahydropyrido[3,4-d]pyrimidin-4-yl)-2-thia-1,3,7-triazaspiro[4.5]decane 2,2-dioxide] | 719 nM | 619 nM | 661 nM | 571 nM | 566 nM | 900 nM |  |  | 
CCc1c(F)ccc2cc(O)cc(N3CCc4c(nc(OC[C@@]56CCCN5C[C@H](F)C6)nc4N4CCCN(C(=O)Cc5ccccn5)CC4)C3)c12 [Example 650, 1-(4-(7-(8-ethyl-7-fluoro-3-hydroxynaphthalen-1-yl)-2-(((2R,7aS)-2-fluorotetrahydro-1H-pyrrolizin-7a(5H)-yl)methoxy)-5,6,7,8-tetrahydropyrido[3,4-d]pyrimidin-4-yl)-1,4-diazepan-1-yl)-2-(pyridin-2-yl)ethan-1-one] |  |  |  |  |  |  | > 10000 nM | > 10000 nM | 
Cc1cc2[nH]nnc2c(N2CCc3c(nc(OCC45CCCN4CCC5)nc3N3CCOC[C@@](C)(O)C3)C2)c1C [Example 638, (S)-4-(7-(5,6-dimethyl-1H-benzo[d][1,2,3]triazol-4-yl)-2-((tetrahydro-1H-pyrrolizin-7a(5H)-yl)methoxy)-5,6,7,8-tetrahydropyrido[3,4-d]pyrimidin-4-yl)-6-methyl-1,4-oxazepan-6-ol] | 5200 nM | 4760 nM | 4500 nM | 5890 nM | 4070 nM | 5380 nM |  |  | 
Cc1cc2[nH]ncc2c(N2CCc3c(nc(OCC45CCCN4CCC5)nc3N3CCCC4(CC(O)C4)C3)C2)c1C (single isomer, unassigned; isomer 2) [Example 454, 6-(7-(5,6-dimethyl-1H-indazol-4-yl)-2-((hexahydro-1H-pyrrolizin-7a-yl)methoxy)-5,6,7,8-tetrahydropyrido[3,4-d]pyrimidin-4-yl)-6-azaspiro[3.5]nonan-2-ol (isomer 2)] | 1080 nM | 645 nM | 585 nM | 728 nM | 1440 nM | 1400 nM |  |  | 
CCc1cccc2cccc(N3CCc4c(nc(OCC5(CN(C)C)CC5)nc4NCc4nn(C)c(C)c4S(N)(=O)=O)C3)c12 [Example 527, 3-(((2-((1-((dimethylamino)methyl)cyclopropyl)methoxy)-7-(8-ethylnaphthalen-1-yl)-5,6,7,8-tetrahydropyrido[3,4-d]pyrimidin-4-yl)amino)methyl)-1,5-dimethyl-1H-pyrazole-4-sulfonamide] | 55000 nM | 55400 nM | 36600 nM | 53600 nM | 98200 nM | 65100 nM |  |  | 
CCc1c(F)ccc2cc(O)cc(N3CCc4c(nc(OC[C@@]56CCCN5C[C@H](F)C6)nc4N4CCCC5(C4)NC(=O)CC54COC4)C3)c12 (stereo partly drawn) [Example 629, 7-(7-(8-ethyl-7-fluoro-3-hydroxynaphthalen-1-yl)-2-(((2R,7aS)-2-fluorotetrahydro-1H-pyrrolizin-7a(5H)-yl)methoxy)-5,6,7,8-tetrahydropyrido[3,4-d]pyrimidin-4-yl)-2-oxa-7,11-diazadispiro[3.0.55.34]tridecan-12-one] |  |  |  |  |  |  | 2550 nM | 1670 nM | 
CCc1c(F)ccc2cc(O)cc(N3CCc4c(nc(OCC5(CN(C)C)CC5)nc4N4CCCN(C(=O)Cc5ccccn5)CC4)C3)c12 [Example 647, 1-(4-(2-((1-((dimethylamino)methyl)cyclopropyl)methoxy)-7-(8-ethyl-7-fluoro-3-hydroxynaphthalen-1-yl)-5,6,7,8-tetrahydropyrido[3,4-d]pyrimidin-4-yl)-1,4-diazepan-1-yl)-2-(pyridin-2-yl)ethan-1-one] |  |  |  |  |  |  | > 10000 nM | > 10000 nM | 
CCc1cccc2cccc(N3CCc4c(nc(OCC5(CN(C)C)CC5)nc4NCC(O)Cn4cccn4)C3)c12 (centres unmarked) [Example 526, 1-((2-((1-((dimethylamino)methyl)cyclopropyl)methoxy)-7-(8-ethylnaphthalen-1-yl)-5,6,7,8-tetrahydropyrido[3,4-d]pyrimidin-4-yl)amino)-3-(1H-pyrazol-1-yl)propan-2-ol] | 111 nM | 175 nM | 158 nM | 151 nM | 87 nM | 63 nM |  |  | 
CCc1c(F)ccc2cc(O)cc(N3CCc4c(nc(OC[C@@]56CCCN5C[C@H](F)C6)nc4N4CCCn5nc(CCO)cc5C4)C3)c12 [Example 630, 5-ethyl-6-fluoro-4-(2-(((2R,7aS)-2-fluorotetrahydro-1H-pyrrolizin-7a(5H)-yl)methoxy)-4-(2-(2-hydroxyethyl)-7,8-dihydro-4H-pyrazolo[1,5-a][1,4]diazepin-5(6H)-yl)-5,8-dihydropyrido[3,4-d]pyrimidin-7(6H)-yl)naphthalen-2-ol] |  |  |  |  |  |  | 361 nM | 753 nM | 
CCc1cccc2cccc(N3CCc4c(nc(OCC56CCCN5CCC6)nc4N4CCn5ncc(P(C)(C)=O)c5C4)C3)c12 [Example 475, (5-(7-(8-ethylnaphthalen-1-yl)-2-((tetrahydro-1H-pyrrolizin-7a(5H)-yl)methoxy)-5,6,7,8-tetrahydropyrido[3,4-d]pyrimidin-4-yl)-4,5,6,7-tetrahydropyrazolo[1,5-a]pyrazin-3-yl)dimethylphosphine oxide] | 11300 nM | 8970 nM | 6990 nM | 8610 nM | 19100 nM | 11300 nM |  |  | 
CCc1c(F)ccc2cc(O)cc(N3CCc4c(nc(OCC5(CN(C)C)CC5)nc4N4CCCN(c5nccs5)CC4)C3)c12 [Example 645, 4-(2-((1-((dimethylamino)methyl)cyclopropyl)methoxy)-4-(4-(thiazol-2-yl)-1,4-diazepan-1-yl)-5,8-dihydropyrido[3,4-d]pyrimidin-7(6H)-yl)-5-ethyl-6-fluoronaphthalen-2-ol] |  |  |  |  |  |  | 4640 nM | 4640 nM | 
CCc1c(F)ccc2cc(O)cc(N3CCc4c(nc(OCC5(CN(C)C)CC5)nc4N4CCCN(CC(F)(F)F)CC4)C3)c12 [Example 646, 4-(2-((1-((dimethylamino)methyl)cyclopropyl)methoxy)-4-(4-(2,2,2-trifluoroethyl)-1,4-diazepan-1-yl)-5,8-dihydropyrido[3,4-d]pyrimidin-7(6H)-yl)-5-ethyl-6-fluoronaphthalen-2-ol] |  |  |  |  |  |  | 6300 nM | 4640 nM | 
CCc1c(F)ccc2cc(O)cc(N3CCc4c(nc(N5CC(N)C5)nc4N4CCCC5(C4)NC(=O)NC5=O)C3)c12 (centres unmarked) [Example 627, 7-(2-(3-aminoazetidin-1-yl)-7-(8-ethyl-7-fluoro-3-hydroxynaphthalen-1-yl)-5,6,7,8-tetrahydropyrido[3,4-d]pyrimidin-4-yl)-1,3,7-triazaspiro[4.5]decane-2,4-dione] |  |  |  |  |  |  | > 10000 nM | > 10000 nM | 
CCc1c(F)ccc2cc(O)cc(N3CCc4c(nc(OC[C@@]56CCCN5C[C@H](F)C6)nc4N4C[C@H]5CC[C@@H](C4)[C@H]5C#N)C3)c12 [Example 652, (1R,5S,8R)-3-(7-(8-ethyl-7-fluoro-3-hydroxynaphthalen-1-yl)-2-(((2R,7aS)-2-fluorotetrahydro-1H-pyrrolizin-7a(5H)-yl)methoxy)-5,6,7,8-tetrahydropyrido[3,4-d]pyrimidin-4-yl)-3-azabicyclo[3.2.1]octane-8-carbonitrile] |  |  |  |  |  |  | > 10000 nM | > 10000 nM | 
CCc1c(F)ccc2cc(O)cc(N3CCc4c(nc(OCC5(CN(C)C)CC5)nc4N4CCCC5(CNC(=O)N5)C4)C3)c12 (centres unmarked) [Example 428, 7-(2-((1-((dimethylamino)methyl)cyclopropyl)methoxy)-7-(8-ethyl-7-fluoro-3-hydroxynaphthalen-1-yl)-5,6,7,8-tetrahydropyrido[3,4-d]pyrimidin-4-yl)-1,3,7-triazaspiro[4.5]decan-2-one] |  |  |  |  |  |  |  |  | IC50 ([7]; Cisbio pERK HTRF): 29 nM; IC50 ([8]; Cisbio pERK HTRF): 199 nM; inhibition at 0.1 µM [9]: 68%; inhibition at 0.1 µM [10]: 30%
CCc1c(F)ccc2cc(O)cc(N3CCc4c(nc(OC[C@@]56CCCN5C[C@H](F)C6)nc4N4CCCn5nc(C(=O)N6CC7(CCN7)C6)cc5C4)C3)c12 [Example 233, (5-(7-(8-ethyl-7-fluoro-3-hydroxynaphthalen-1-yl)-2-(((2R,7aS)-2-fluorohexahydro-1 H-pyrrolizin-7a-yl)methoxy)-5,6,7,8-tetrahydropyrido[3,4-d]pyrimidin-4-yl)-5,6,7,8-tetrahydro-4H-pyrazolo[1,5-a][1,4]diazepin-2-yl)(1,6-diazaspiro[3.3]heptan-6-yl)methanone] |  |  |  |  |  |  |  |  | IC50 ([7]; Cisbio pERK HTRF): 94 nM; inhibition at 0.1 µM ([7]; ASPC1, single point at 100 nM, 3 hrs compound incubation): 30%; IC50 ([8]; Cisbio pERK HTRF): 346 nM; inhibition at 0.1 µM ([8]; NCI-H727, single point at 100 nM, 3 hrs compound incubation): 31%; inhibition at 0.1 µM [9]: -7%; inhibition at 0.1 µM [10]: -10%
